Drawing on paper PMC7803741, this text covers binding for nine molecules.

Amino acid sequences for entries named in this document (tags omitted). A change or cut given only in a name is not applied to a line headed by its entry. Chains listed by the source or under a name are the forms on record and can include a tag or linker. Residues count along the entry.
UniProt Q9DCD6: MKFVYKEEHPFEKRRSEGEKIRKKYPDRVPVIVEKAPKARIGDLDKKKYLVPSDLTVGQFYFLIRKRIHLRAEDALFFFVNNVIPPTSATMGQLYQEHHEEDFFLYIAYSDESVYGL
UniProt P84092: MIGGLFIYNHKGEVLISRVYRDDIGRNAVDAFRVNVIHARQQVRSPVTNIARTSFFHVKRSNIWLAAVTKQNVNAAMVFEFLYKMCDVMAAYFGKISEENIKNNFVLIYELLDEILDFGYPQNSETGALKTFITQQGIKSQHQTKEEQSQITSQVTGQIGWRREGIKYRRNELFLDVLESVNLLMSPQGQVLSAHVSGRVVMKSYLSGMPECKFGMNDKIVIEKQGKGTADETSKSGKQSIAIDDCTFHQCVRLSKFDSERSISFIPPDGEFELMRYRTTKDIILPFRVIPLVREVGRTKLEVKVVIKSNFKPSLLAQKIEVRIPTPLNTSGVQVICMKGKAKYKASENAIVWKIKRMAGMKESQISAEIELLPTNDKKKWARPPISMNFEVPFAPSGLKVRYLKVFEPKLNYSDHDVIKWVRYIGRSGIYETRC
AP2 with N-terminal His6-tag: residues 158-435 of P84092

These are yes or no findings as the source states them, for the method shown. For some assays here: In cells and extracts the contact can be indirect. Some binding calls cover weakened binding; strength is not graded here. For some assays here: Tags and fused reporters may be left off the sequences shown.

In one assay the target is GST-GABARAP (mouse) (UniProt Q9DCD6). The experiment in a line: pull-down; 2 µM purified GST-Atg8 protein incubated with HEK-293 lysate of GFP-tagged γ2 subunit (1% NP-40, 1% DDM), 4 °C; GSH-Sepharose 4B; immunoblot; only the target purified. (A western blot detects proteins with antibodies after separation by electrophoresis.)
The target in assay [1] is clathrin adaptor protein AP2 (AP2 μ1 subunit as printed) (rat) (UniProt P84092). Briefly: ITC; VP-ITC, 25 °C; 50 mM Tris pH 7.8, 100 mM NaCl, 1 mM EDTA, 1 mM DTT; γ2 subunit protein or peptide (100–200 μM) injected into GABARAP, GABARAPL1 or AP2 (10–20 μM) in the cell; one-site binding model; both purified.
Assay [2] has as its target GABAAR-associated protein (GABARAP) (mouse) (UniProt Q9DCD6). Briefly: condition: 100–200 μM in the syringe, 10–20 μM in the cell; ITC; VP-ITC, 25 °C; 50 mM Tris pH 7.8, 100 mM NaCl, 1 mM EDTA, 1 mM DTT; γ2 subunit protein or peptide (100–200 μM) injected into GABARAP, GABARAPL1 or AP2 (10–20 μM) in the cell; one-site binding model; both purified.
Assay [3] deals with clathrin adaptor protein AP2 (AP2 μ1 subunit) (rat) (UniProt P84092). Briefly: condition: γ2 protein 100-200 μM injected into 10-20 μM AP2; ITC; VP-ITC at 25 °C; 50 mM Tris pH 7.8, 100 mM NaCl, 1 mM EDTA, 1 mM DTT; γ2 subunit protein or peptide (100-200 μM) injected into GABARAP, GABARAPL1 or AP2 (10-20 μM) in the cell; one-site binding model; both purified.
Assay [4] has as its target AP2 with N-terminal His6-tag (rat) (UniProt P84092). Briefly: SEC; analytical gel filtration; proteins with N-terminal His6-tag at 100 µM; Superose12 or Superdex200 increase 10/300 GL; 50 mM Tris pH 7.5, 100 mM NaCl, 1 mM EDTA, 1 mM DTT; AP2, GABARAP and γ2-GIM alone, in pairs and all three mixed; both purified. Background: In gel filtration, larger molecules generally elute earlier.

Assay [5] concerns the target GABAAR-associated protein (GABARAP) (mouse) (UniProt Q9DCD6). Briefly: ITC; giant ankyrin peptides and GABARAP, compared against γ2-GIM; both purified. On the technique in general: Isothermal titration calorimetry measures the heat released or taken up as one component is titrated into another.

B1: full length GFP-γ2-GABAAR with a 398–415 deletion (receptor, UniProt P22723-2)
chain: QKSDDDYEDYASNKTWVLTPKVPEGDVTVILNNLLEGYDNKLRPDIGVKPTLIHTDMYVNSIGPVNAINMEYTIDIFFAQTWYDRRLKFNSTIKVLRLNSNMVGKIWIPDTFFRNSKKADAHWITTPNRMLRIWNDGRVLYTLRLTIDAECQLQLHNFPMDEHSCPLEFSSYGYPREEIVYQWKRSSVEVGDTRSWRLYQFSFVGLRNTTEVVKTTSGDYVVMSVYFDLSRRMGYFTIQTYIPCTLIVVLSWVSFWINKDAVPARTSLGITTVLTMTTLSTIARKSLPKVSYVTAMDLFVSVCFIFVFSALVEYGTLHYFVSNRKPSKDKDKKKKNPAPTIDIRPRSATIQMNNATHLQFFCCFEDCRTGAWRHGRIHIRIAKMDSYARIFFPTAFCLFNLVYWVSYLYL
Take B1: in the assay with GST-GABARAP (mouse), the binding result is given as “no binding”.

B2: γ2-GIM L408Q variant (peptide, UniProt P22723-2 398-415)
chain: ERDEEYGYECQDGKDCAS
Turning to B2, the binding result in assay [1] was “binds”; in assay [2], “no binding”.

B3: full length GFP-γ2-GABAAR E406R variant (receptor, UniProt P22723-2 39-466)
chain: QKSDDDYEDYASNKTWVLTPKVPEGDVTVILNNLLEGYDNKLRPDIGVKPTLIHTDMYVNSIGPVNAINMEYTIDIFFAQTWYDRRLKFNSTIKVLRLNSNMVGKIWIPDTFFRNSKKADAHWITTPNRMLRIWNDGRVLYTLRLTIDAECQLQLHNFPMDEHSCPLEFSSYGYPREEIVYQWKRSSVEVGDTRSWRLYQFSFVGLRNTTEVVKTTSGDYVVMSVYFDLSRRMGYFTIQTYIPCTLIVVLSWVSFWINKDAVPARTSLGITTVLTMTTLSTIARKSLPKVSYVTAMDLFVSVCFIFVFSALVEYGTLHYFVSNRKPSKDKDKKKKNPAPTIDIRPRSATIQMNNATHLQERDEEYGYRCLDGKDCASFFCCFEDCRTGAWRHGRIHIRIAKMDSYARIFFPTAFCLFNLVYWVSYLYL
As to B3, in the assay with GST-GABARAP (mouse), the binding entry is “no binding”.

B4: GFP-γ2-GABAAR with a 424–441 deletion (receptor, UniProt P22723-2)
chain: QKSDDDYEDYASNKTWVLTPKVPEGDVTVILNNLLEGYDNKLRPDIGVKPTLIHTDMYVNSIGPVNAINMEYTIDIFFAQTWYDRRLKFNSTIKVLRLNSNMVGKIWIPDTFFRNSKKADAHWITTPNRMLRIWNDGRVLYTLRLTIDAECQLQLHNFPMDEHSCPLEFSSYGYPREEIVYQWKRSSVEVGDTRSWRLYQFSFVGLRNTTEVVKTTSGDYVVMSVYFDLSRRMGYFTIQTYIPCTLIVVLSWVSFWINKDAVPARTSLGITTVLTMTTLSTIARKSLPKVSYVTAMDLFVSVCFIFVFSALVEYGTLHYFVSNRKPSKDKDKKKKNPAPTIDIRPRSATIQMNNATHLQERDEEYGYECLDGKDCASFFCCFEDCSYARIFFPTAFCLFNLVYWVSYLYL
Regarding B4, in the assay with GST-GABARAP (mouse), the binding result was “binds”.

B5: GABAA receptor γ2-GIM Y405E (peptide, UniProt P22723-2 398-415)
chain: ERDEEYGEECLDGKDCAS
Take B5: the binding result in assay [3] is reported as “no binding”.

B6: GABAA receptor γ2-GIM (398-415) with N-terminal His6-tag (peptide)
chain: ERDEEYGYECLDGKDCAS
For B6, the binding entry in assay [4] is “binds”.

B7: AnkB-WR peptide (peptide)
peptide: VEEERVIVSDEEIEEARQKAPLEITEY
In the case of B7, the binding result in assay [5] was “binds weakly”.

B8: octadecapeptide … (residues 424–441) from the TM3–TM4 intracellular loop of the GABAA receptor γ2 subunit (peptide)
peptide: RTGAWRHGRIHIRIAKMD
Take B8: the binding result in assay [2] is given as “no binding”.

B9: γ2-GIM E406R variant (peptide, UniProt P22723-2 398-415)
chain: ERDEEYGYRCLDGKDCAS
In the case of B9, the binding entry is “binds” in assay [1] and “no binding” in assay [2].
